{"source": "ChEMBL document CHEMBL4888484", "about": "“Replenishing the malaria drug discovery pipeline: Screening and hit evaluation of the MMV Hit Generation Library 1 (HGL1) against asexual blood stage Plasmodium falciparum ,using a nano luciferase reporter read-out” (2022)", "note": "The whole screen tested about 150,000 compounds, of which about 540 (0.36%) showed an effect of 50% or more. Some of the results follow."}
{"system": "Plasmodium falciparum", "assay": "Primary screen in NF54 nanoGlo assay, in single point, at 2uM, 72h; a lower Z score goes with more inhibition", "assay_type": "functional, Erythrocyte", "settings": "timepoint 72 hour", "units": {"% Inhibition": "%"}}
{"smiles": "O=C(Nc1nnc(-c2ccsc2)o1)c1cc(-c2ccccc2)on1", "% Inhibition": -2, "Z score": 0.35}
{"smiles": "CCCOc1ccc(CNCCCN(C)C)cc1OCC", "% Inhibition": 1, "Z score": -0.08}
{"smiles": "Cc1ccc(NC(=O)Cn2nc3c(N4CCOCC4)nccn3c2=O)cc1F", "% Inhibition": -3, "Z score": 0.43}
{"smiles": "Cc1ccc(NC(=O)N2CCN(c3cnnc(N(C)C)c3)CC2)c(Cl)c1", "% Inhibition": 0, "Z score": 0.04}
{"smiles": "CC1(C)CCC[C@H](CNC(=O)c2cnc(O)cc2C(F)(F)F)O1", "% Inhibition": -4, "Z score": 0.89}
{"smiles": "CCCNC(=O)CN1CCC2(O)CCCCC2[C@@H]1c1cc(OC)ccc1OC", "note": "(stereo not given in full)", "% Inhibition": 2, "Z score": -0.2}
{"smiles": "CN(CCCO)S(=O)(=O)c1c(F)cccc1OC(F)(F)F", "% Inhibition": 1, "Z score": -0.13}
{"smiles": "Fc1cccc(Cl)c1CNc1ccc(Nc2ccccc2)cc1", "% Inhibition": -5, "Z score": 0.57}
{"smiles": "CCC(CC)(CO)CN(C)C(=O)c1cc(F)cc(C#N)c1", "% Inhibition": -5, "Z score": 1}
{"smiles": "CC(C)OCCC(=O)N1CCN(CC(C)(C)O)CC1", "% Inhibition": 0, "Z score": 0.04}
{"smiles": "CN(CCC1(O)CCCC1)C(=O)[C@@H]1CCCCCN1C", "% Inhibition": -8, "Z score": 1.36}
{"smiles": "COCCCN1CC[C@H](CNC(=O)c2ccc(-c3cccc(C)n3)cc2)C1", "% Inhibition": -9, "Z score": 1.21}
{"smiles": "COc1ccc2cc(COC(=O)CN3C(=O)c4ccccc4C3=O)ccc2c1", "% Inhibition": 2, "Z score": -0.21}
{"smiles": "CO[C@@](C)(CNS(C)(=O)=O)c1cccc(Cl)c1", "% Inhibition": -15, "Z score": 3.08}
{"smiles": "Cc1ocnc1C(=O)N1CC[C@@]2(CCCN(Cc3ccc(F)c(F)c3)C2=O)C1", "% Inhibition": -7, "Z score": 1.28}
{"smiles": "CC(C)n1cnnc1CNC(=O)[C@H](C)n1nnnc1C(C)(C)C", "% Inhibition": -7, "Z score": 0.72}
{"smiles": "Cc1nc(CN(Cc2ccc(F)cc2)[C@H]2CCN(C)C2)oc1C", "% Inhibition": 5, "Z score": -0.92}
{"smiles": "Cc1ccc2ncc(CN3CCC[C@H](CNC(=O)Nc4cccc(F)c4)C3)n2c1", "% Inhibition": -13, "Z score": 2.28}
{"smiles": "COc1ccc(CNCc2cccnc2Oc2ccccc2)cc1", "% Inhibition": 3, "Z score": -0.37}
{"smiles": "CCOC(=O)[C@H]1CCCN(Cc2cn3cccnc3n2)C1", "% Inhibition": 4, "Z score": -0.49}
{"smiles": "N#Cc1cccnc1NCCNCc1ccc2c(c1)CCO2", "% Inhibition": -3, "Z score": 0.3}
{"smiles": "Cc1ccc(NC(=O)c2coc(CN3CCN(CC(C)(C)O)CC3)n2)cc1C", "% Inhibition": 3, "Z score": -0.32}
{"smiles": "C[C@@]1(C(=O)N2CCC3(CCC(=O)N(CCc4c[nH]cn4)C3)CC2)CCCO1", "% Inhibition": -8, "Z score": 0.82}
{"smiles": "Cc1ccc(Cl)cc1N1CCN(C(=O)c2cc3n(n2)C[C@@H](O)CNC3=O)CC1", "% Inhibition": -13, "Z score": 1.21}
{"smiles": "COc1ccc(OCC(=O)N2CCC3(CC2)Nc2cccnc2N=C3NC(C)(C)C)cc1", "% Inhibition": 35, "Z score": -3.97}
{"smiles": "CCC[C@H](NC(=O)c1c(Cl)c(C)nn1C)C(=O)NC", "% Inhibition": -18, "Z score": 1.9}
{"smiles": "COCc1ccccc1S(=O)(=O)N(C)c1ccc2ccccc2n1", "% Inhibition": -1, "Z score": 0.1}
{"smiles": "CCn1nc(C)c(CN2CCOc3ccc(C4(O)CCN(C)CC4)cc3C2)c1C", "% Inhibition": -12, "Z score": 2}
{"smiles": "Cc1ccsc1CN(C)[C@@H](C)C(=O)NC(N)=O", "% Inhibition": -14, "Z score": 2.01}
{"smiles": "COc1ncccc1C(=O)N1CCc2c(cnc3cc(C)nn23)C1", "% Inhibition": -1, "Z score": 0.19}
{"smiles": "CC(NC1CC(C)(C)OC1(C)C)C(=O)NCc1cccs1", "note": "(stereo not given)", "% Inhibition": -6, "Z score": 0.75}
{"smiles": "COc1ccc(-c2cc(C(=O)NCc3ccc4c(c3)OCO4)c3ccccc3n2)cc1OC", "% Inhibition": -7, "Z score": 1.3}
{"smiles": "Clc1ccc(N2COC3c4cccc5cccc(c45)C32)cc1", "note": "(stereo not given)", "% Inhibition": -1, "Z score": 0.06}
{"smiles": "CC1=N[C@@H](Cc2ccccc2)C(=O)Nc2cc(Br)ccc21", "% Inhibition": -9, "Z score": 1.67}
{"smiles": "CCCC[C@@H](c1cccnc1)N(C)Cc1ccco1", "% Inhibition": -15, "Z score": 1.47}
{"smiles": "O=c1c2ccccc2sn1-c1cc(S(=O)(=O)N2CCOCC2)ccc1N1CCCC1", "% Inhibition": -13, "Z score": 2.05}
{"smiles": "C[C@@H](CO)NC(=O)C(=O)Nc1c(F)c(F)c(F)c(F)c1F", "% Inhibition": -43, "Z score": 4.99}
{"smiles": "O=C(c1n[nH]c2ccccc12)N1C[C@@H]2CC[C@H]1CN(Cc1ccccn1)C2", "% Inhibition": -18, "Z score": 3.14}
{"smiles": "CC(C)(O)c1ccc(CNC(=O)N2C3CCC2CC(CCF)C3)cc1", "note": "(stereo not given)", "% Inhibition": -7, "Z score": 0.97}
{"smiles": "CCCN1C(=O)CC[C@@H]2CN(C(=O)c3cc[nH]n3)CC[C@@H]21", "% Inhibition": -10, "Z score": 2.02}
{"smiles": "CC(C)(C)OC(=O)N1CCC(S(N)(=O)=O)CC1", "% Inhibition": -18, "Z score": 3.53}
{"smiles": "CCN(CC)CCN(C(=O)c1ccc(S(=O)(=O)N2CCOCC2)cc1)c1nc2cc3c(cc2s1)OCCO3", "% Inhibition": 16, "Z score": -2.08}
{"smiles": "CCn1nc(C)nc1CCCc1c[nH]c2ccccc12", "% Inhibition": 3, "Z score": -0.49}
{"smiles": "O=c1c2cnc(N3CCc4ccccc4C3)nc2ccn1-c1cccc(F)c1", "% Inhibition": -15, "Z score": 2}
{"smiles": "Cn1nc2c(c1-c1cncc(C(F)F)c1)CCCC2", "% Inhibition": 3, "Z score": -0.32}
{"smiles": "COc1ccc(C)c2sc(N(CCCN(C)C)C(=O)c3ccnn3C)nc12", "% Inhibition": -7, "Z score": 1.27}
{"smiles": "CCOc1cc(CNc2ccc(N3CCNC(=O)C3)nc2)cc(Cl)c1OC", "% Inhibition": -8, "Z score": 0.89}
{"smiles": "O=C(c1cc(=O)c2ccccc2[nH]1)N1Cc2ccccc2CO1", "% Inhibition": 1, "Z score": -0.1}
{"smiles": "CCOC(=O)c1cccc(NC(=O)Cn2c(=O)n(C(C)C)c(=O)c3sc(N4CCCCC4)nc32)c1", "% Inhibition": -16, "Z score": 1.44}
{"smiles": "Cc1noc(C)c1S(=O)(=O)N[C@@H](C)C(=O)N1CCCC(C)CC1", "note": "(stereo not given in full)", "% Inhibition": -7, "Z score": 0.97}
{"smiles": "CC(=O)N1CCCN(c2nc3c(s2)CCC3)CC1", "% Inhibition": -18, "Z score": 2.58}
{"smiles": "CC(C)OC(=O)CN(CCC(N)=O)c1ccc(F)cc1", "% Inhibition": -6, "Z score": 0.59}
{"smiles": "Cc1nc(C)c(CC(=O)N(Cc2ccncc2)C2CCCCC2)s1", "% Inhibition": -7, "Z score": 1.27}
{"smiles": "CCc1cnc(CN2C(=O)NC3(CCC3)C2=O)o1", "% Inhibition": 2, "Z score": -0.33}
{"smiles": "Cc1cccc2c1OCC[C@@H]2NC(=O)N1CCC[C@H]1CO", "% Inhibition": -12, "Z score": 1.25}
